Among the data in paper PMC3297578 are binding values, retold here.

Chains of the proteins cited; added tags and fusions are not shown.
UniProt Q11107: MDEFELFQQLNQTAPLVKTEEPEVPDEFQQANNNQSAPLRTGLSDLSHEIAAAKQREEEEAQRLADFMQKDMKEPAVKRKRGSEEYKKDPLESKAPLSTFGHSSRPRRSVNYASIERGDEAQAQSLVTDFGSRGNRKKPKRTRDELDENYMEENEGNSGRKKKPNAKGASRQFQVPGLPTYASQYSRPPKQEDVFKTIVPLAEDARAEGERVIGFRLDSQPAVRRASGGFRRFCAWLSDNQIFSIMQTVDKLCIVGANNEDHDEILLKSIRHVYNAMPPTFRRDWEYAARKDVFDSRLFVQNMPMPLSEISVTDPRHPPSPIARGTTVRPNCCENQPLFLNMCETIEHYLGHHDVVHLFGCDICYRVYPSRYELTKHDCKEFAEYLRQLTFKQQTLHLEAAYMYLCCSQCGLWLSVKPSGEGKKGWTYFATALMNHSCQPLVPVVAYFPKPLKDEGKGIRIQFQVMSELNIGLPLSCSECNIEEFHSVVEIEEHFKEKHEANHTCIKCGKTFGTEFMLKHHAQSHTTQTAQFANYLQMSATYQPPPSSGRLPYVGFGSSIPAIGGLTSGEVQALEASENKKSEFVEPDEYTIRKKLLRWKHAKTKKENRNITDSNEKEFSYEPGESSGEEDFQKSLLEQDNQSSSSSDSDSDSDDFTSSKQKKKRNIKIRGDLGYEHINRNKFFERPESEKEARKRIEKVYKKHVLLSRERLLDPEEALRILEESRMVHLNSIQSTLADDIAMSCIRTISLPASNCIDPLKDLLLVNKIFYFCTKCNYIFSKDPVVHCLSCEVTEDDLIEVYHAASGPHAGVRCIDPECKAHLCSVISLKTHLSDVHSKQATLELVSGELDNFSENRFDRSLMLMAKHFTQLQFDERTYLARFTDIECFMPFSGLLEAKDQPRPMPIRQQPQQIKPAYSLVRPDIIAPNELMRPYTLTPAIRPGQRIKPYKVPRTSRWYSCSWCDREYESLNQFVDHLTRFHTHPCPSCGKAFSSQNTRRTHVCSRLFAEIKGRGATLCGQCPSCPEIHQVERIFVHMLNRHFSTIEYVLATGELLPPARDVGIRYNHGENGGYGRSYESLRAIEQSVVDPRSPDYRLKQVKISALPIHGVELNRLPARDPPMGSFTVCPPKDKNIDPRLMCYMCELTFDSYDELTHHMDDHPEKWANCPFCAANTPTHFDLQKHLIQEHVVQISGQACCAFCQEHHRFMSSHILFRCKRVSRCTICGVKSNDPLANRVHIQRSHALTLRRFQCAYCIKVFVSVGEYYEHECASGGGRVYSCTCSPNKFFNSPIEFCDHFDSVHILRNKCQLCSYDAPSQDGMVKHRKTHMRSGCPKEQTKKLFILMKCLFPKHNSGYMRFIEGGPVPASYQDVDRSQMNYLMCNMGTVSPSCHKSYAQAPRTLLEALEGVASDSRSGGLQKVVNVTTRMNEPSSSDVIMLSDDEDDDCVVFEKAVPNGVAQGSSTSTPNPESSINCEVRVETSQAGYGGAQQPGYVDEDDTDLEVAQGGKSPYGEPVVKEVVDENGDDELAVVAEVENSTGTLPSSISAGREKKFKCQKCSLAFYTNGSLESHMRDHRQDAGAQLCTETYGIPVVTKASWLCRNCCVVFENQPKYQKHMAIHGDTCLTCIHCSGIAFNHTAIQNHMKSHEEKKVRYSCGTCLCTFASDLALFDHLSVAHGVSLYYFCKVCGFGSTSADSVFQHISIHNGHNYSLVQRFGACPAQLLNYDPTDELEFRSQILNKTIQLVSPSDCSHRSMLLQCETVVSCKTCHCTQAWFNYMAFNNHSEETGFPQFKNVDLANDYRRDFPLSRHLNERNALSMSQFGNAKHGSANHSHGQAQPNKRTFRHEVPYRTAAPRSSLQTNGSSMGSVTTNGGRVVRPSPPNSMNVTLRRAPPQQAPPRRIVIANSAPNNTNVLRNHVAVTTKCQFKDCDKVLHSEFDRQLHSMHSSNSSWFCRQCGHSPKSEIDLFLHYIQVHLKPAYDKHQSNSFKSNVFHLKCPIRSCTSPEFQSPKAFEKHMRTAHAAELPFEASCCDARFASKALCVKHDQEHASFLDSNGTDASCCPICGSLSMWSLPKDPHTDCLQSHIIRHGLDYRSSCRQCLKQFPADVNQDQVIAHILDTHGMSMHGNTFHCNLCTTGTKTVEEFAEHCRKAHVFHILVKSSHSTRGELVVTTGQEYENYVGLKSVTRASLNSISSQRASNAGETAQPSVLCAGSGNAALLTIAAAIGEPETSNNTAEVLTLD

No constants are given. Whether binding was seen depends on the method and setting. Binding seen in cells or lysates may run through a third protein. Some results given as binding are weak or reduced against the parent protein; the word gives no strength. Tags and fused reporters may be left off the sequences shown.

What all share (test): co-IP; anti-GFP immunoprecipitation from 50 ul packed embryos coexpressing a GFP fusion and a 3xFLAG fusion; eluted by boiling in sample buffer; Western with anti-GFP and M2 anti-FLAG
For one experiment, the target named is LIN-13::GFP (C. elegans) (UniProt Q11107).
For a further experiment, the target named is T1, HPL-2::GFP (C. elegans) (UniProt G5EDE2).
T1 sequence: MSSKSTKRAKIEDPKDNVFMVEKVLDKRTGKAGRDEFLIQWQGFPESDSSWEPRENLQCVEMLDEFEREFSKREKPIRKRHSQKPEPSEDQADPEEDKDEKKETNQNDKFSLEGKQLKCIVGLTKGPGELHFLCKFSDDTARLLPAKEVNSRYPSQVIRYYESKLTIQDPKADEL

The target of another experiment is T2, LIN-61::GFP (C. elegans) (UniProt B2D6M2).
T2 sequence: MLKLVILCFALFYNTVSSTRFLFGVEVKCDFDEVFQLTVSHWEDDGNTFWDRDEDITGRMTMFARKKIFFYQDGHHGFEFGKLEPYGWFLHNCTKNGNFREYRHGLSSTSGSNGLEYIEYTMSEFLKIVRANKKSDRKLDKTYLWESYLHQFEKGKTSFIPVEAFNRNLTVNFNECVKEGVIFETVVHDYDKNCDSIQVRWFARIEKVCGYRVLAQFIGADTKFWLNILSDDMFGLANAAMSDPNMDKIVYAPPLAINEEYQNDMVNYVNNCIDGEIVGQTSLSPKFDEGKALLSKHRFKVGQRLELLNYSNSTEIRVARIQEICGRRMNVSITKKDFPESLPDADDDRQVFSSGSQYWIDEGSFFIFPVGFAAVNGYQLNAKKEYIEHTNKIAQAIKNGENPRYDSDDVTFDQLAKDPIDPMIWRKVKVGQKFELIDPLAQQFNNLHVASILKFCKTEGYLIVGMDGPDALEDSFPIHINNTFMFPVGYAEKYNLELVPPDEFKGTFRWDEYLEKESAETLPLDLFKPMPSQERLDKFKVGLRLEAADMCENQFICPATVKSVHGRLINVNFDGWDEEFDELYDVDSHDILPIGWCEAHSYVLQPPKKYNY

B1: LIN-61::3xFLAG (protein, UniProt B2D6M2 1-612)
chain: T2 sequence
Turning to B1, the binding result with LIN-13::GFP (C. elegans), with HPL-2::GFP (C. elegans) and in the experiment with LIN-61::GFP (C. elegans) was “binds” throughout.

B2: LIN-54::3xFLAG (protein, UniProt Q95QD7 1-435)
chain: MNQGEIVYQDDDDYYDESEIYDNYEEGAEFIEVNGQLVPHNPNLQAQQNRPGTSSMIQQHNRSMEVNQGLVKDEPIDTSSHRVYVPPPRPVQRKLFQPGPSTPGSSQYTVRNLSNLSGSPSMYDRQPASLPRTVQPMGLEMGNSEQRKVYIDMKDHVSHIRLKTKKKVFAPGQRKPCNCTKSQCLKLYCDCFANGEFCRDCNCKDCHNNIEYDSQRSKAIRQSLERNPNAFKPKIGIARGGITDIERLHQKGCHCKKSGCLKNYCECYEAKVPCTDRCKCKGCQNTETYRMTRYKNSGGAVSNTNALMSLTNASSTATPDSGPGSVVTDEHGDDYEDMLLSHKPKVEMDPRRFPWYYMTDEVVEAATMCMVAQAEEALNYEKVQTEDEKLINMEKLVLREFGRCLEQMITNTTELTQDLDAAPTDDIPGPSTSTS
Consider B2, for which the binding result with LIN-13::GFP (C. elegans) was “no binding”; in the experiment with HPL-2::GFP (C. elegans), “binds weakly”; with LIN-61::GFP (C. elegans), “no binding”.
